Measured values from PubChem BioAssay AID488969 (Vanderbilt High Throughput Screening Facility, 2010).
The full ranking holds about 110,000 compounds; the median of “z-score” is about -0.1, and the highest 2% start at about 2. Some of the results follow.

Biological target: Metabotropic glutamate receptor 8 (Rattus norvegicus) (UniProt P70579)
Assay: mGluR8 Gi/Go-coupled signaling modulation – cell-based, rat, thallium flux, HTS, primary screen (AID 488969)
Details: HEK293 rat mGluR8, GIRK (G protein-gated inwardly rectifying potassium channel) thallium flux, FluoZin2; at 10 µM; stronger effect = higher value; submaximal glutamate (EC20) added with thallium

UniProt P70579, sequence (P70579 whole entry, looked up): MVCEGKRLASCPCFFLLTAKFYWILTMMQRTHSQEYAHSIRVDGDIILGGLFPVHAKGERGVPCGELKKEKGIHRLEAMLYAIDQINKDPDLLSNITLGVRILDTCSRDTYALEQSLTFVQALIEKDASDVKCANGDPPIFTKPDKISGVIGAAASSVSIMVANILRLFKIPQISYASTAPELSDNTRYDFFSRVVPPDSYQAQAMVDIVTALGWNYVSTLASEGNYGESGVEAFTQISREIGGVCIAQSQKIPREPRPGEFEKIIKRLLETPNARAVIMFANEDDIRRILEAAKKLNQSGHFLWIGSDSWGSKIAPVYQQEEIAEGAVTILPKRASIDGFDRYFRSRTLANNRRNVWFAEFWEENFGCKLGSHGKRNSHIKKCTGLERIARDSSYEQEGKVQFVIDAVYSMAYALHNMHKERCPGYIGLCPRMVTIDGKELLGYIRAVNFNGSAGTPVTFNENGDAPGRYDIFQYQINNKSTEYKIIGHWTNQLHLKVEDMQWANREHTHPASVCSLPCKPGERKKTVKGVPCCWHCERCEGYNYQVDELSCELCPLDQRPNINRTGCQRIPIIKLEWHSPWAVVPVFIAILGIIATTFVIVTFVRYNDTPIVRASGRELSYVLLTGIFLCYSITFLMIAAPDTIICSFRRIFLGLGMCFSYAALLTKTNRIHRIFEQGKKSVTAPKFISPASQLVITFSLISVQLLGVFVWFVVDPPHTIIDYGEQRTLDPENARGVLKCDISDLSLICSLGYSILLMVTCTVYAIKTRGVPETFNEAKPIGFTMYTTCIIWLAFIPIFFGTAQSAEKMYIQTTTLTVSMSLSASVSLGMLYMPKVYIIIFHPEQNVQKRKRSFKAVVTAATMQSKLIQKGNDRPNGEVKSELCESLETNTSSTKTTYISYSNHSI

Row | Compound | z-score
1 | CCOc1cc(S(=O)(=O)NCc2ccc(OC)cc2)c(OCC)cc1-n1cnnn1 | -0.123
2 | Cc1ccc(NC(=O)N2CCC(C(=O)NCCC3=CCCCC3)CC2)cc1 | 0.266
3 | CCn1c(NCc2ccco2)nc2c1c(=O)n(C)c(=O)n2C | 0.397
4 | CC(=O)N1CCc2cc(C(=O)CN3CCN(C(=O)c4ccco4)CC3)ccc21 | 0.0857
5 | Fc1ccccc1CN1CCCCCCC1 | -0.0629
6 | O=C(Nc1ccc(S(=O)(=O)NC2CCCCC2)cc1)c1ccc(Br)o1 | -0.321
7 | COc1ccc(N2CCN(c3c(S(=O)(=O)c4ccccc4)cnc4ccc(OC)cc34)CC2)cc1 | -0.154
8 | COc1ccccc1C(=O)Nc1ccc(Oc2nnc(-c3ccc(C)cc3)c3ccccc23)cc1 | -0.186
9 | O=C(Cc1ccccc1)N/N=C/C=C/c1cccc([N+](=O)[O-])c1 | -0.0919
10 | O=C(CCl)NNc1cccc(Cl)n1 | 0.0611
11 | CNc1nc2[nH]c(=O)c3c(c2s1)OC(N)=C(C#N)C3c1ccccc1 (stereo not drawn) | -0.149
12 | CCCCCC(=O)N1CC2(CC(c3cccc(NC(=O)c4ccccc4)c3)=NO2)C[C@@H]1C(N)=O (stereo partly drawn) | -0.104
13 | Cn1c(CSCc2ccc(Cl)cc2)nnc1SCC(=O)Nc1nccs1 | -0.542
14 | O=[N+]([O-])c1ccc(/C=N/NC(=S)Nc2ccccc2C(F)(F)F)o1 | 1.06
15 | CCCCCn1c(=O)c(-c2nc3ccccc3c(=O)[nH]2)c(O)c2ccccc21 | 0.548
16 | O=c1n(Cc2ccccc2F)c2ccccc2n1Cc1ccccc1F | -0.282
17 | COc1ccc(CNC2CCCCC2)cc1 | 0.437
18 | CC1CN(C(=O)CCN2C(=O)c3ccccc3C2=O)CC(C)O1 (stereo not drawn) | 0.244
19 | CC(C)C(NC(=O)c1ccc(Cl)cc1)C(=O)O (stereo not drawn) | 1.93
20 | Cc1ccccc1S(=O)(=O)c1c(C)cc(C)n(C(C)C)c1=O | -0.131
21 | Cc1ccccc1NC(=O)CSc1nc2ccccc2o1 | -0.058
22 | Cc1c(Cl)cccc1NC(=O)CC1SC(=NCC2CCCO2)NC1=O (stereo not drawn) | -0.244

Row | Compound | z-score
23 | Cc1cc(C)nc(SCC(=O)Nc2ccccc2[N+](=O)[O-])n1 | -0.0823
24 | CN=C(Nc1ccc2c(c1)OCO2)SC1CC(=O)N(c2ccccc2)C1=O (stereo not drawn) | -0.0948
25 | CC(C)(C)NC(=O)c1cc([N+](=O)[O-])ccc1N1CCCCC1 | -0.12
26 | Cc1nnc(NC(=O)CC(CN(C)S(=O)(=O)c2ccccc2)c2ccccc2)s1 (stereo not drawn) | -0.403
27 | COc1cc(-c2nnc(SC/C=C/c3ccccc3)n2N)cc(OC)c1OC | -0.458
28 | CCc1ccccc1NC(=O)CSc1nnc(Cn2cnc3ccccc32)o1 | -0.219
29 | COc1ccc2c(c1)SC(C)CC2=O (stereo not drawn) | -0.303
30 | COC(=O)C1CCN(C(=O)COC(=O)Cc2c[nH]c3ccccc23)CC1 | -0.393
31 | CC(C)C(NS(=O)(=O)c1cccc2nsnc12)C(=O)N1CCn2c1nc1ccccc12 (stereo not drawn) | -0.153
32 | CCOC(=O)Cc1csc(/C(=N/O)C(N)=O)n1 | 0.267
33 | CC(=O)Nc1nc2ccccc2n1Cc1ccccc1C | -0.289
34 | CCCCN(C)C(=O)c1ccc(CS(=O)(=O)c2ccccc2C)o1 | 0.105
35 | COc1ccc(NC(=O)C2CCN(Cc3cnn(-c4ccccc4)c3-n3cccc3)CC2)cc1OC | -0.402
36 | COc1ccc(OCCNc2cc(Cl)ccc2[N+](=O)[O-])cc1 | -0.0226
37 | CS/C(=N\S(=O)(=O)c1cccs1)Nc1ccc(Cl)cc1 | -0.467
38 | Cc1c(Cl)cnc(NC(=O)COC(=O)CCS(=O)(=O)c2ccccc2)c1Cl | -0.05
39 | Cc1cc(C(=O)COC(=O)Cn2cnc3c2c(=O)n(C)c(=O)n3C)c(C)n1C | -0.445
40 | CSCC[C@H](NC(=O)C1CCN(S(=O)(=O)c2ccc(C)cc2)CC1)C(=O)NCc1ccco1 | -0.0105
41 | Cc1ccc2[nH]c(-c3cccc(N)c3)cc2c1 | -0.0452
42 | Cc1ccc(OCC(=O)N(Cc2ccccc2)C(C)C)c([N+](=O)[O-])n1 | -0.134
43 | CCOC(=O)/C=C1\SCC(=O)N1CC(=O)Nc1ccc(OC)c(OC)c1 | -0.0598
44 | Cc1ccc(NC(=O)ON=C2CCCC2)cc1 | -0.0815

Row | Compound | z-score
45 | Cc1cc(NCC(C)C)n2ncnc2n1 | 0.113
46 | COc1ccc(-c2nnn(CC(=O)N(C3CCCCC3)C(C)C(=O)NC3CCCC3)n2)cc1OC (stereo not drawn) | 1.3
47 | CCCCn1c(SCC(=O)NCc2ccco2)nnc1-c1ccoc1C | -0.872
48 | O=C(Nc1ccccc1OC(F)F)C1CCCN1C(=O)c1cccs1 (stereo not drawn) | -0.637
49 | CCCc1nc2ccccc2c(C(=O)OCC(=O)Nc2c(C)n(C)n(-c3ccccc3)c2=O)c1CC | -0.454
50 | COCCn1c(SCc2nc3sc(C(=O)OC)c(C)c3c(=O)[nH]2)nc2ccccc21 | 0.877
51 | CCOC(=O)c1cnc2nc(NCc3ccc(OC)c(OC)c3)[nH]n2c1=O | -0.118
52 | CCOCCc1nnc(NC(=O)Cc2ccccc2)s1 | -0.126
53 | COC(=O)C(NNc1ccccc1)(NC(=O)c1ccccc1F)C(F)(F)F (stereo not drawn) | 0.148
54 | O=c1cc(NS(=O)(=O)c2ccccc2)nc(SCc2ccccc2Cl)[nH]1 | 0.325
55 | CCc1ccc(CC)c(S(=O)(=O)Nc2ccc(O)c(C(=O)O)c2)c1 | 0.441
56 | Cc1cc(/C=C2/SC(=S)N(c3cccc(C(F)(F)F)c3)C2=O)c(C)n1-c1cccnc1 | -0.0303
57 | Nc1ccc(NC(=O)c2ccccc2)c2c1C(=O)c1ccccc1C2=O | 0.0931
58 | O=C(Cn1c(=O)oc2cc(S(=O)(=O)N3CCCCC3)ccc21)N1CCc2ccccc21 | 0.123
59 | Nc1c(C(=O)Nc2nc3ccccc3s2)sc2nc(-c3cccs3)ccc12 | 0.0764
60 | CCCCCn1c(N)c(-c2nc3ccccc3s2)c2c([N+](=O)[O-])nn(CC)c(=O)c21 | -0.75
61 | Cc1nc(SCC(=O)N2CCN(C(=O)c3ccco3)CC2)c2c(C)c(C)sc2n1 | -0.629
62 | COc1cc(OC)c2c(C)c(Cl)c(=O)oc2c1 | 0.803
63 | CCOC(=O)c1ccc(Nc2nc(C)cc(=O)[nH]2)cc1 | 0.244
64 | CCN(C(=O)COc1ncnc2scc(-c3ccc(F)cc3)c12)C1CCS(=O)(=O)C1 (stereo not drawn) | 0.0479
65 | COc1ccc(-c2nc3ccccc3c(=O)n2CCN2CCOCC2)cc1 | -0.437
66 | CCOC(=O)C1CCN(CCC(=O)Nc2ccc(Cl)cc2)CC1 | 0.215

Row | Compound | z-score
67 | CC1CCCC(N2CCN(C(=O)c3ccc(F)cc3)CC2)C1 (stereo not drawn) | -1.76
68 | CCOC(=O)c1[nH]c2ccccc2c1NC(=O)c1ccc2c(c1)OCO2 | -0.524
69 | Fc1ccc(C2CC(c3ccccc3)n3ncnc3N2)cc1 (stereo not drawn) | -0.277
70 | CCOc1ccccc1NC(=S)NC1CCCCC1 | -0.129
71 | N#Cc1ccsc1NC(=O)CN1CCCCC1 | 0.666
72 | CCC(=O)Nc1cccc(NC(=O)c2cccc([N+](=O)[O-])c2C)c1 | 0.682
73 | CCOc1ccc2oc(-c3ccccc3)c(C(=O)O)c2c1 | -0.436
74 | O=c1cc(O)c2c(=O)n(-c3ccccc3)c3ccccc3c2o1 | -0.183
75 | Cc1c(Cl)cccc1NC(=O)c1cccc(OC(F)F)c1 | -0.269
76 | Cn1c(=NC(=O)CSCC(=O)N2CCCCC2)sc2ccccc21 | 0.77
77 | CCOC(=O)N1CCN(C(=O)Cc2ccc(C)cc2)CC1 | -0.283
78 | COc1cccc(NC(=O)C(C)Oc2ccccc2)c1 (stereo not drawn) | -0.519
79 | Cc1nn(-c2ccccc2)c(C)c1NC(=O)COc1ccc(C#N)cc1 | -0.133
80 | O=C(CNc1cccc2ccccc12)N/N=C/c1cccc(Oc2ccccc2)c1 | -0.181
81 | COCCNC(=O)CS(=O)(=O)Cc1nc(-c2ccc(C)cc2)oc1C | -0.173
82 | Cc1ccc(NC(=S)N2CCOCC2)c(C)c1 | 0.0311
83 | COc1ccc(OC)c(S(=O)(=O)N(C)CC(=O)N2CCN(c3ccc(F)cc3)CC2)c1 | -0.0715
84 | Cc1nc2ccccc2n1CC(=O)NCCN1CCOCC1 | 0.331
85 | CC(C)Cn1c(N)c(S(=O)(=O)c2cccs2)c2nc3ccccc3nc21 | -1.43
86 | c1ccc(N2CCN(c3ccccc3)C2c2cccnc2)cc1 | -0.375
87 | CCOC(=O)c1cc2sc(C)cc2n1CCCN1C(=O)c2ccccc2C1=O | 0.136
88 | COc1ccc(C(=O)N2N=C(c3cccc(OC)c3)CC2(O)C(F)(F)F)cc1 (stereo not drawn) | 0.326

Row | Compound | z-score
89 | COc1ccc(NC(=O)CC2C(=O)N(c3ccc(OC)cc3)C(=O)N2CCc2cccs2)cc1 (stereo not drawn) | -0.146
90 | COc1ccc(/C=N/NC(N)=S)cc1OC(=O)c1ccccc1 | -0.441
91 | COc1ccc2c(c1)N(C)/C(=C1/SC(=NCc3ccccc3)N(c3ccccc3)C1=O)S2 | -0.131
92 | O=C(Nc1ccccn1)C(F)(F)C(F)(F)C(F)(F)C(F)(F)C(=O)Nc1ccccn1 | 0.103
93 | Cc1cc(C(=O)NCc2cc(C)n(C)n2)sc1-c1ccccc1 | -0.62
94 | O=C(NC(=S)Nc1ccccn1)c1cncc(Br)c1 | 0.829
95 | O=C(c1ccccc1)c1cccc(NC(=O)c2ccc(Br)o2)c1 | -0.711
96 | O=C(NCCc1cccs1)C1CC(c2cccc([N+](=O)[O-])c2)=NO1 (stereo not drawn) | -0.00027
97 | COc1ccc(-c2cc(-c3n[nH]c(=S)n3-c3ccccc3OC)[nH]n2)cc1 | -0.592
98 | CCOc1ccc(N/C=C\C(=O)c2ccc3c(c2)OCO3)cc1 | -0.114
99 | CC(C)CNC(=S)Nc1ccccc1F | -0.197
100 | CCS(=O)(=O)N1CCC(C(=O)NCc2cccnc2)CC1 | 0.0787
101 | O=C(Cn1c(=O)oc2cc(S(=O)(=O)N3CCCCC3)ccc21)N1CCc2ccccc2C1 | 0.0243
102 | COc1ccc(/C=C/C(=O)c2ccc3c(c2)OCCO3)cc1[N+](=O)[O-] | 0.373
103 | O=C(NC12CC3CC(CC(C3)C1)C2)C12CC3CC(C1)CC(n1cnc(Cl)n1)(C3)C2 | 0.0163
104 | COc1ccc(NC(=O)c2cc3c(-c4ccc(OC)c(OC)c4)nn(C)c3s2)cc1OC | -0.137
105 | CC1CCCN(C(=O)CSCC(=O)N=c2sc3ccccc3n2C)C1 (stereo not drawn) | -0.635
106 | C=CCn1c(CCNC(=O)c2ccc(Cl)c(Cl)c2)nnc1SCCOc1ccc(OC)cc1 | -0.286
107 | COc1cc(OC)cc(C(=O)NC(C(=O)NCCN(C)C)C23CC4CC(CC(C4)C2)C3)c1 (stereo not drawn) | 0.208
108 | CN(C)c1ccc(/C=C2\CCC/C(=C\c3ccccc3)C2=O)cc1 | -0.296
